Laboratory results reported in the supplement of paper PMC4604168 (melanoma cell lines).
The list shows a part of the results. Many values rest on one well or one pass, so single values are uncertain.
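Note: cells treated in 1,536-well plates, then fixed and DAPI-stained, with nuclei counted from automated high-throughput microscope images.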

The molecules below were run on LOXIMVI (assay: cell count relative to DMSO control; melanoma cells; higher = more viable cells). Details: library dose: standard library concentration; 72 h.
`O=c1[nH]nc(Sc2ncc([N+](=O)[O-])s2)n1-c1ccc2c(c1)OCCO2` + Cc1ccc(Nc2nccc(N(C)c3ccc4c(C)n(C)nc4c3)n2)cc1S(N)(=O)=O [Pazopanib] (first compound 1 µM, partner dose 2 µM) showed a cell count of 129%.
Work on `O=C(Nc1cccc(Cl)c1)Nc1ncc(CCNc2ncnc3ccsc23)s1` + Oc1cc(-c2nc(-c3ccccc3)[nH]c2-c2ccncc2)ccc1Cl [L779450] (first compound 0.004 µM, partner dose 1 µM) yielded a cell count of 113%.
`COc1cc(Nc2ncc(F)c(Nc3ccc4c(n3)NC(=O)C(C)(C)O4)n2)cc(OC)c1OC` [Tamatinib] + CCN(CC)CCCCNc1ncc2cc(-c3cc(OC)cc(OC)c3)c(NC(=O)NC(C)(C)C)nc2n1 [PD173074] (first compound 2 µM, partner dose 0.5 µM) was tested, and the cell count was 28.7%.
In the case of `O=c1[nH]nc(Sc2ncc([N+](=O)[O-])s2)n1-c1ccc2c(c1)OCCO2` + Nc1ncn([C@H]2C[C@H](O)[C@@H](CO)O2)c(=O)n1 [decitabine] (first compound 1 µM, partner dose 0.5 µM), the cell count is reported as 45.8%.
`O=c1[nH]nc(Sc2ncc([N+](=O)[O-])s2)n1-c1ccc2c(c1)OCCO2` + C[C@]1(O)C[C@@H](c2nc(-c3ccc4ccc(-c5ccccc5)nc4c3)c3c(N)nccn32)C1 [OSI906] (first compound 1 µM, partner dose 2 µM) was tested, and the cell count was 76.8%.
`O=c1[nH]nc(Sc2ncc([N+](=O)[O-])s2)n1-c1ccc2c(c1)OCCO2` + CCCCCCCCc1ccc(CCC(N)(CO)CO)cc1 [fingolimod] (first compound 1 µM, partner dose 10 µM) showed a cell count of 12.7%.
`O=c1[nH]nc(Sc2ncc([N+](=O)[O-])s2)n1-c1ccc2c(c1)OCCO2` + COc1ccc(-c2ccc3c(N4CCOCC4)nc(N4C[C@@H](C)O[C@@H](C)C4)nc3n2)cc1CO [KU0063794] (first compound 1 µM, partner dose 0.1 µM) gave a cell count of 108%.
`COc1cc(Nc2ncc(F)c(Nc3ccc4c(n3)NC(=O)C(C)(C)O4)n2)cc(OC)c1OC` [Tamatinib] + c1cc(-c2cnn3cc(-c4ccc(OCCN5CCCCC5)cc4)cnc23)ccn1 [Dorsomorphin] (first compound 2 µM, partner dose 2 µM) gave a cell count of 38.6%.
In the case of `O=C(Nc1cccc(Cl)c1)Nc1ncc(CCNc2ncnc3ccsc23)s1` + O=C1NC(=O)/C(=C/c2ccc(-c3ccc(F)cc3O)o2)S1 [AS252424] (first compound 0.004 µM, partner dose 5 µM), the cell count is reported as 73.6%.
Work on `CC1(C)NC(=O)N(c2ccc([N+](=O)[O-])c(C(F)(F)F)c2)C1=O` [nilutamide] + Oc1cc(-c2nc(-c3ccccc3)[nH]c2-c2ccncc2)ccc1Cl [L779450] (first compound 5 µM, partner dose 1 µM) yielded a cell count of 99.4%.
For `O=C(O)c1ccc(-c2c[nH]c3ncc(-c4ccccc4)cc23)cc1C1CCCC1` + O=C1NC(=O)/C(=C/c2ccc(-c3ccc(F)cc3O)o2)S1 [AS252424] (first compound 0.8 µM, partner dose 5 µM), the cell count was 89.4%.
With `O=C(Nc1cccc(Cl)c1)Nc1ncc(CCNc2ncnc3ccsc23)s1` + CN(C)S(=O)(=O)c1ccc2c(c1)/C(=C/c1cc3c([nH]1)CCCC3)C(=O)N2 [SU6656] (first compound 0.004 µM, partner dose 2 µM) the cell count was 77.4%.
With `O=c1[nH]nc(Sc2ncc([N+](=O)[O-])s2)n1-c1ccc2c(c1)OCCO2` + O=C(/C=C/c1cccnc1)NCCCCC1CCN(C(=O)c2ccccc2)CC1 [FK866] (first compound 1 µM, partner dose 0.05 µM) the cell count was 69.6%.
`O=C(O)c1ccc(-c2c[nH]c3ncc(-c4ccccc4)cc23)cc1C1CCCC1` + CC(C)CCN1c2nc(Nc3cc(F)c(O)c(F)c3)ncc2N(C)C(=O)C1C [BID1870] (first compound 0.8 µM, partner dose 1 µM) gave a cell count of 104%.
For `O=C(O)c1ccc(-c2c[nH]c3ncc(-c4ccccc4)cc23)cc1C1CCCC1` + COc1cc2ncnc(Nc3ccc(Oc4ccccc4)cc3)c2cc1OC [SrcI1] (first compound 0.8 µM, partner dose 10 µM), the cell count was 73.5%.
